Source: PubChem BioAssay AID1159614 (National Center for Advancing Translational Sciences (NCATS), 2016)
The campaign covered roughly 45,000 compounds. About 65 (0.1%) were called active. Calls come from the whole dose curve; as a rule, active = well fitted activation curve with a large enough effect; inconclusive = small, poorly fitted or top-dose-only effect; inactive = no such curve, though single readings can be large or run the other way. The list shows a part of the results.

target: Galactocerebrosidase (Homo sapiens) (UniProt P54803); assay: A Novel Cell-Based Assay to Identify Small Molecules for B -Galactocerebrosidase; conditions: 145M-Twi-hGALC-G270D cells (Twitcher mouse brain line with human GALC G270D), HMU-beta-Gal fluorescence, 48 h; series mostly up to 57.5 µM; activation: at the top concentration; note: 0% is about no effect; nearly all actives have a fitted effect of over 65% in size
Chain of UniProt P54803 (P54803 whole entry, looked up): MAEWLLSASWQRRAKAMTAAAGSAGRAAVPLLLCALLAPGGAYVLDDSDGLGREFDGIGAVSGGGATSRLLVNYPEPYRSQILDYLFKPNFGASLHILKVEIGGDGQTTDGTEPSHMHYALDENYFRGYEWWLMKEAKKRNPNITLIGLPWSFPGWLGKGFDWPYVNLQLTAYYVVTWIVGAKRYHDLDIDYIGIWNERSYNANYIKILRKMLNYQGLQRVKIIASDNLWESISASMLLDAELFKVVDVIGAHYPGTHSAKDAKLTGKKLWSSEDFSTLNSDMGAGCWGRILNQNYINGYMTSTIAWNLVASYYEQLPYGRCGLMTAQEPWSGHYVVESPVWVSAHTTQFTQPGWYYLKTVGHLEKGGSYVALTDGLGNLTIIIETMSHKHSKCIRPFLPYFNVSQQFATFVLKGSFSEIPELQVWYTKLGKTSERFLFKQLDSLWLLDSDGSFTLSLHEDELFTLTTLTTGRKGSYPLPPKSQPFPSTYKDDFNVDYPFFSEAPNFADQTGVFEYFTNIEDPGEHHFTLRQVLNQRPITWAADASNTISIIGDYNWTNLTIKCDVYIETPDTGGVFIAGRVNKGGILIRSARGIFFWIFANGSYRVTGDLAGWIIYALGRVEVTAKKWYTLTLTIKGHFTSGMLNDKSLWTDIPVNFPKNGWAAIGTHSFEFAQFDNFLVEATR
How it was run: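 Fluorescence readout: HMU-β-gal cleavage by mutant GALC (0.1 mM final, citrate/phosphate pH 5.2 with 1 mg/mL taurocholate), stopped with carbonate/bicarbonate plus Triton X-100. Cells: murine Twitcher 145M-Twi expressing human G270D GALC; qHTS for activators.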

activation, inactive:
CCOc1ccc(CCNC(=O)c2ccc(-n3c(C)cc4c3CCC(C)C4)cc2)cc1OCC (stereo unspecified) -16.6%
CCC(=O)c1cc2c(cc1NC(=O)c1ccccc1F)OCCO2 -12.2%
CCN(CC)c1sc(S(=O)(=O)c2ccccc2)nc1S(=O)(=O)c1ccc(C)cc1 -9.43%
CC1=C(C(=O)Nc2ccc(C)cc2Cl)C2(CCCCCC2)OC1=O -9.83%
CC(=O)N1c2ccc(S(=O)(=O)NCCC(=O)Nc3ccc(Br)c(C)c3)cc2CC1C (stereo unspecified) -16%
Cc1cccc(NC(=O)c2sc3nc(N4CCOCC4)c4c(c3c2N)CC(C)(C)OC4)c1 -13.7%
COc1ccc(NC(=O)Cn2ncc3c2-c2ccccc2OC3)cc1Cl -27.6%
O=C(CSc1nc2c([nH]c3ccccc32)c(=O)n1-c1ccccc1)Nc1ccc2c(c1)OCCO2 -16.7%
COc1ccccc1C(=O)Nc1ccc(OCc2cc(=O)n3ccsc3n2)cc1 0.52%
CCCCOc1cccc(C(=O)N(Cc2cccs2)c2ccc(OC)cc2)c1 -13.3%
CCCCNC(=O)C1CCC(CNS(=O)(=O)c2ccc(Cl)cc2)CC1 (stereo unspecified) -0.734%
CCc1ccc(S(=O)(=O)N(C(=O)Oc2ccccc2)c2ccc3oc(C)c(C(=O)OC)c3c2)cc1 -29%
CC(C)(C)c1ccc(-c2nc(SCC(=O)Nc3ccc(Cl)cc3)[nH]c(=O)c2C#N)cc1 -10.4%
CC(=O)NCCn1c(SCC(=O)Nc2ccc(C)cc2)nc2ccccc2c1=O -19.5%
CCN(CC)CCNC(=O)Nc1ccc2c(c1)N(Cc1ccccc1)C(=O)c1ccccc1S2 -9.96%
COc1ccc(N2CC(NC(=O)c3ccc(S(=O)(=O)N4CCOCC4)cc3)CC2=O)cc1OC (stereo unspecified) 3.06%
COc1ccccc1CNC(=O)CC(c1ccc(OC)c(OC)c1)N1Cc2ccccc2C1=O (stereo unspecified) -25.6%
CCc1cnc2c(c1SCC(=O)c1ccc(OC)cc1)c(=O)n(C)c(=O)n2C -15.4%
COc1ccc(OC)c(/C=C/C(=O)Nc2ccc(C(=O)OCCC(C)C)cc2)c1 -12.4%
O=S(=O)(NCc1ccc(Cl)cc1)c1ccc(-c2cnc(C3CC3)o2)cc1 -8.96%
Cc1ccccc1CN1C(=O)c2ccccc2Sc2ccc(C(=O)NC3CCCC3)cc21 1.28%
CCN(Cc1ccccc1)c1ncnc2c1nnn2C -24.3%
CCCCN(CCCC)C(=O)C1CCN(S(=O)(=O)c2cccc3nsnc23)CC1 7.98%
Cc1ccc(Cl)cc1-n1ncc2c(N3CCCCCC3)ncnc21 -29.8%
COc1cccc(-n2c(-c3cccc(F)c3)nc3c(cnn3-c3ccc(C)cc3)c2=O)c1 -7.02%
Cc1c(-c2ccc(Cl)cc2)c(=O)oc2ccc(OC(=O)N3CCOCC3)cc12 -20.5%
CCc1ccc(S(=O)(=O)c2nnn3c2nc(Nc2ccc(F)cc2)c2cc(Cl)ccc23)cc1 22.1%
CCC(C)NC(=O)CCSc1nc(-c2ccc(OC)cc2)cc(C(F)(F)F)n1 (stereo unspecified) -2.7%
O=C(O)c1cccc(Nc2ncnc3scc(-c4ccccc4)c23)c1 -21.4%
O=C(NCc1ccc(F)cc1)c1cc(-c2ccc(Cl)cc2)n[nH]1 -9.23%
Cc1ccc(C(=O)Nc2nnc(S(=O)(=O)N3CCc4ccccc43)s2)cc1 -7.41%
Cc1ccccc1C(=O)Oc1c(Sc2ccccc2)c(C)nn1C(C)(C)C -10.8%
COc1ccc(NC(=O)c2cc(CN3CCCC3)on2)cc1Cl -10.5%
CCOc1ccc(CCNC(=O)CCSCc2ccc(Cl)cc2)cc1OCC -11.1%
CCOC(=O)CSc1nc2sc3c(c2c(=O)n1-c1ccccc1)CCC(C(C)(C)C)C3 (stereo unspecified) -26.5%
CCC(=O)N1CCc2cc(Br)cc(S(=O)(=O)N3CCCC(C(=O)Nc4cccc(F)c4)C3)c21 (stereo unspecified) -11.4%
CC(C)Oc1ccc(CNC(=O)c2cccc(NC(=O)N3CCSc4ncccc43)c2)cc1 -9.8%
Cc1cccc(Cc2c(C)nc3nc(SCC(=O)NCc4ccccc4)nn3c2C)c1 -6.71%
CCOc1ccc(NC(=O)c2cnc(Nc3ccccc3OC)c3ccccc23)cc1 -10.4%
COc1ccc(CCNC(=O)Cn2ncc3c(=O)oc4ccccc4c32)c(OC)c1 -15.3%
CCOc1ccc(NC(=O)c2oc3ccccc3c2NC(=O)c2cc(C)cc(C)c2)cc1 -5.16%
CCc1ccc2oc(-c3cc(NC(=O)c4cccnc4)cc(C)c3O)nc2c1 -8.19%
COc1ccc(CC(=O)NCc2ccc3c(c2)CCN3C(=O)c2ccc(Cl)cc2)cc1 -15.1%
CCOC(=O)c1cc(-c2ccccc2)n(-c2cccc(C(=O)Nc3cc(OC)cc(OC)c3)c2)c1C 1.12%
Cc1cc(C)cc(Oc2c(C(F)(F)F)oc3cc(OCC(=O)NC4CCCCC4)ccc3c2=O)c1 -9.63%
CCOC(=O)c1sc(NC(=O)c2cc3nc(-c4ccccc4)cc(C(F)(F)F)n3n2)c(C(=O)OCC)c1C -0.139%
Cn1c(=O)oc2cc(S(=O)(=O)N3CCC(C(=O)Nc4ccc(F)c(Cl)c4)CC3)ccc21 -21.3%
O=C(Nc1cccc(Br)c1)N1CCC(CN2CCCCCC2)CC1 -8.09%
COc1cccc(CNC(=O)CN(c2ccc(C(C)C)cc2)S(=O)(=O)c2c(C)noc2C)c1 -2.65%
COC(=O)c1ccc(OCC2c3cc(OC)c(OC)cc3CCN2C(=O)Cc2ccccc2)cc1 (stereo unspecified) -19.4%
Cn1cnnc1SCC(=O)Nc1ccc(C#N)cc1 -16.3%
CN(CC(=O)NCc1ccccc1)S(=O)(=O)c1ccc2[nH]c3c(c2c1)CCCC3 -14.4%
COC(=O)c1c(Cl)c(Cl)c(C(=O)OC)c(Cl)c1Cl -2.71% [at 114 µM]
CC(C)(C)C1CCc2c(sc(NC(=O)c3ccc(Cl)cc3)c2C(=O)NCc2ccco2)C1 (stereo unspecified) -18.6%
COc1ccccc1N1CCN(c2ncnc3c2cnn3-c2cccc(Cl)c2)CC1 -14.1%
COc1ccc(-c2[nH]c(-c3cccc(OC)c3)nc2SCC(=O)NC2CCCC2)cc1 -23.1%
O=S(=O)(NCC(c1cccs1)S(=O)(=O)c1ccccc1)c1ccc(F)c(C(F)(F)F)c1 (stereo unspecified) -22.7%
CCN(Cc1ccccc1)S(=O)(=O)c1cc(C(=O)Nc2cc(Cl)cc(Cl)c2)ccc1F -19.8%
COc1ccc(-c2cn3nc(N4CCCC(C(=O)Nc5cc(C)cc(C)c5)C4)sc3n2)cc1 (stereo unspecified) -0.428%
CCc1ccccc1NC(=O)C1(C)Cc2ccccc2C(=O)O1 (stereo unspecified) -13.8%
O=C(C1CCN(S(=O)(=O)c2ccc(Br)s2)CC1)N1CCN(c2ccccc2)CC1 -8.99%
